PubChem BioAssay AID1768 (National Center for Advancing Translational Sciences (NCATS), 2009)
Among all 270,000 compounds or so, about 620 (0.23%) were called active. Inconclusive means that the source gave no clear call. Such entries were picked first, then a sample of the others. The call rests on the fitted dose curve; in most records, active means well fitted inhibition curve with a large enough effect in the polarisation, with a control signal flat (not every such curve was filed as active); inconclusive means small, poorly fitted or top-dose-only effect, or effect the other way, or a change in a side signal; inactive means no such curve, though single readings can be large or run the other way; the % refers to the polarisation. Where the call is inconclusive, the potency comes from a doubtful curve fit. “Side channel” marks fits to a control or component signal instead of the main read-out.

Target: Menin (Homo sapiens) (UniProt O00255)
Assay: qHTS Assay for Inhibitors Targeting the Menin-MLL Interaction in MLL Related Leukemias: Competition With Texas Red Labeled MLL-derived Mutant Peptide
Settings: fluorescence polarization; series mostly up to 61.6 µM
Potency means the concentration at half of the fitted maximal effect; tags describe the fitted curve by direction and shape or compound fluorescence and quenching.

Sequence of UniProt O00255 (O00255 whole entry, looked up): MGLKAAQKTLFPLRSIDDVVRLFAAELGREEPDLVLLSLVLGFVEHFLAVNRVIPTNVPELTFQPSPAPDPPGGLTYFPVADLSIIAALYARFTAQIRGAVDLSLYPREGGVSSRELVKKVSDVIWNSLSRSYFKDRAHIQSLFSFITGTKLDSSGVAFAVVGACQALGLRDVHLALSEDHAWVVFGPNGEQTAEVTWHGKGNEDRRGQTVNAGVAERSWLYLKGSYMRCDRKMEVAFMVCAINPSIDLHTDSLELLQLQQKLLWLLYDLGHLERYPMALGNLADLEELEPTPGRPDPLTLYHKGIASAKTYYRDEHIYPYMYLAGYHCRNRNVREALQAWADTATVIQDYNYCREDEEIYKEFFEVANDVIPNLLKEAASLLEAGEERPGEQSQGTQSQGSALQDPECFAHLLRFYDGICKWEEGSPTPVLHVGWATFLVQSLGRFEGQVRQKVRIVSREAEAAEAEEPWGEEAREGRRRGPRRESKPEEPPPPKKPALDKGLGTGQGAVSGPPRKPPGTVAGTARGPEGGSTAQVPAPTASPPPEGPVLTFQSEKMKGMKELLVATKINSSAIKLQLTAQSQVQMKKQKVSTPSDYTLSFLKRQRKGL

Potency, inactive:
O=C(CCCn1cc([N+](=O)[O-])cn1)NC1CCCCCC1, CCc1cc2c3c(c(=O)oc2cc1O)CCCC3, COC(CNC(=O)c1ccc2nc3ccccc3c(=O)n2c1)OC, O=c1[nH]cc(F)c(=O)[nH]1, Cc1cccc(N2C(=O)c3cccc4c(N(C)CCO)ccc(c34)C2=O)c1

Potency, inconclusive:
COc1ccc2nc(NC(=O)c3cccc(OCc4c(C)noc4C)c3)sc2c1 2.82 µM [quencher, side channel, full curve], O=C(Nc1ccc(/C=C/c2nc3ccccc3o2)cc1)c1cccc(C(F)(F)F)c1 31.6 µM [inhibitor, partial curve], CN(C)S(=O)(=O)c1cccc(CNCC2COc3ccccc3O2)c1 (configuration not stated) 12.6 µM [inhibitor, partial curve, poor fit], CN(C)c1ccnc(Oc2ccccc2)c1C#N 15.8 µM [inhibitor, partial curve], CC1=NN(C(N)=S)C(=O)C1N=Nc1c(Br)cc(Br)cc1Br (configuration not stated) 8.91 µM [quencher, side channel, partial curve], O=c1cc(-c2cc(O)c(O)c(O)c2)oc2cc(O)cc(O)c12 22.4 µM [quencher, side channel, partial curve], Cc1ccc(NC(=O)CN2C(=O)S/C(=C/c3ccc(-c4cc(C(=O)O)ccc4C)o3)C2=O)cc1C 25.1 µM [quencher, side channel, partial curve], CCOC(=O)c1sc(NC(=O)Nc2ccccc2Cl)cc1C 20 µM [quencher, side channel, partial curve], O=C1CCC(C(=O)N2CCC(CO)(Cc3ccc(Cl)cc3)CC2)=NN1 25.1 µM [inhibitor, single point], CCN(CC(=O)NCc1ccc(Cl)cc1)C(=O)c1ccc2cc(OC)ccc2c1 35.5 µM [fluorescent, side channel, single point], O=C(Nc1cccc(-n2cnnn2)c1)c1cc2ccccc2o1 11.2 µM [quencher, side channel, partial curve], CCOC(=O)C1(CCc2ccccc2)CCN(C(=O)C2=C(C)OCCO2)CC1 8.91 µM [inhibitor, full curve, poor fit], COc1ccc(NC(=O)c2cc3cccc(OC)c3oc2=Nc2ccc(C(=O)O)cc2)cc1OC 3.98 µM [quencher, side channel, full curve], Cc1ccc(-c2csc3ncnc(NS(=O)(=O)c4ccc(Cl)cc4)c23)cc1 15.8 µM [quencher, side channel, partial curve], CSc1cccc(NC(=O)/C=C/c2cccc(Cl)c2)c1 20 µM [quencher, side channel, partial curve], O=S(=O)(c1ccccc1C(F)(F)F)N1CCN(S(=O)(=O)c2ccccc2C(F)(F)F)CC1 39.8 µM [fluorescent, side channel, single point], CCOc1ccc2nc(NC(=O)c3ccc(S(=O)(=O)N4CCOCC4)cc3)sc2c1 3.55 µM [quencher, side channel, full curve], Cc1cccc(CCNS(=O)(=O)c2ccc(S(=O)(=O)N3CCCCC3)cc2)c1 39.8 µM [fluorescent, side channel, single point], Nn1cnnc1N/N=C/c1cc([N+](=O)[O-])c(Cl)cc1Cl 10 µM [quencher, side channel, partial curve], NS(=O)(=O)c1cccc(NC(=O)c2ccccc2NS(=O)(=O)c2ccc(F)cc2)c1 25.1 µM [quencher, side channel, partial curve], O=[N+]([O-])c1ccc(Nc2c3ccccc3nc3ccccc23)cc1 6.31 µM [quencher, side channel, partial curve], CC1Cc2ccccc2N1C(=O)CN1CCN(Cc2ccccc2)CC1 (configuration not stated) 31.6 µM [inhibitor, single point], Nc1ccc(S(=O)(=O)Nc2nccc(/C=C/c3ccc(Br)s3)n2)cc1 39.8 µM [inhibitor, single point], OCCN(CCO)CC(O)CN1c2ccccc2Sc2ccccc21 (configuration not stated) 22.4 µM [inhibitor, single point], COc1ccc(CNC(=S)Nc2ccc(Br)cc2)cc1 25.1 µM [quencher, side channel, single point], CCOc1ccc(N2C(=O)CN(O)C=C3N=c4ccccc4=C32)cc1 39.8 µM [quencher, single point], Cc1ccc(C(=O)Nn2c(N)c(S(=O)(=O)c3ccc(C)cc3)c3nc4ccccc4nc32)cc1 39.8 µM [inhibitor, single point], CCOc1ccccc1Nc1nc(-c2sc(NC(=O)c3ccc([N+](=O)[O-])cc3)nc2C)cs1 2.51 µM [quencher, side channel, full curve], O=C(CNc1cccc2ccccc12)N/N=C/c1ccc([N+](=O)[O-])cc1 25.1 µM [quencher, side channel, partial curve], Cc1cc(/C=N/NC(=O)c2cc3ccccc3o2)c(C)n1C 28.2 µM [quencher, side channel, single point], COc1ccc(CCNC(=O)CN2CCCc3ccccc32)cc1OC 12.6 µM [fluorescent, side channel, partial curve], O=C(CCCC(=O)OCC(=O)c1cccs1)Nc1ccc(Oc2ccccc2)cc1 0.708 µM [inhibitor, full curve], O=C(c1ccco1)N1CCC2(CCCN(C(c3ccccc3)c3ccccc3)C2)CC1 2.24 µM [fluorescent, side channel, full curve, poor fit], CCS(=O)(=O)c1ccc2oc(Nc3cccc(OC)c3)nc2c1 15.8 µM [quencher, side channel, partial curve], O=C(COC(=O)/C=C/c1ccc(OC(F)F)cc1)Nc1ccc(S(=O)(=O)N2CCCC2)cc1 25.1 µM [quencher, side channel, single point], O=C(O)c1nn(Cc2csc(-c3ccccc3)n2)c(=O)c2ccccc12 39.8 µM [inhibitor, single point], COc1ccc(N(CC(=O)Nc2ccc(F)cc2)S(=O)(=O)c2ccccc2[N+](=O)[O-])c(OC)c1 10 µM [quencher, side channel, partial curve], O=C(NC(Cc1c[nH]c2ccccc12)C(=O)OCC(=O)c1cccc2ccccc12)c1cccs1 (configuration not stated) 20 µM [inhibitor, single point], Cc1nc(-c2coc3cc(OCC(=O)O)ccc3c2=O)cs1 7.94 µM [inhibitor, full curve], C(=N\Nc1nc2ccccc2s1)/c1ccco1 14.1 µM [quencher, side channel, partial curve], COCc1ccc(C(=O)N2CCCC(C(=O)c3cc(F)ccc3F)C2)s1 (configuration not stated) 3.16 µM [fluorescent, side channel, full curve], CC(=O)c1ccc(NC(=O)COC(=O)c2c3c(nc4ccccc24)/C(=C\c2cccs2)CCC3)cc1 39.8 µM [inhibitor, partial curve], COc1ccc(C2c3cc(OC)c(OC)cc3CCN2C(=O)c2ccccc2)cc1OC (configuration not stated) 7.94 µM [inhibitor, full curve], COc1ccc(C(c2c[nH]c3ccccc23)c2c[nH]c3ccccc23)cc1O 25.1 µM [quencher, side channel, partial curve], COc1ccc(-n2nnnc2/C=C\Nc2ccccc2C(=O)c2ccccc2)cc1 4.47 µM [inhibitor, single point], Oc1ccccc1N=Nc1nc(-c2ccccc2)c(-c2ccccc2)[nH]1 11.2 µM [quencher, side channel, partial curve], Cc1sc2ncnc(SCC(=O)N3CCCCC3)c2c1C 10 µM [inhibitor, full curve], CCOc1ccccc1NC(=O)N1CCC(NC(=O)C2CCCCC2)CC1 3.16 µM [inhibitor, single point], S=C(Nc1ccc(Nc2ccccc2)cc1)N1CCN(c2ncccn2)CC1 11.2 µM [quencher, side channel, partial curve], Nc1nc(-c2ccccc2)c(-c2ccc([N+](=O)[O-])cc2)s1 20 µM [quencher, side channel, partial curve], CCOC(=O)c1ccc(-n2c(CN(CC)CC)nc3ccc([N+](=O)[O-])cc3c2=O)cc1 17.8 µM [quencher, side channel, partial curve], COc1ccc([N+](=O)[O-])cc1NC(=O)Nc1cccc(Cl)c1 8.91 µM [quencher, side channel, partial curve]
